Consider 5 compounds from PubChem BioAssay (NCATS).

Assay [1] in a line: qHTS of pediatric cancer cell lines to identify multiple opportunities for drug repurposing: Primary screen for SK-N-MC cells (AID 1347093).
In assay [2] the test system is Zika virus NS2B-NS3 protease. As to the kind of experiment: Primary screen GU AMC qHTS for Zika virus inhibitors (AID 1347154). Also: nearly all actives have a fitted effect of over 70% in size. The method in brief: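 Unlinked Zika NS2B hydrophilic domain/NS3 protease domain noncovalent complex (25 nM final) in 10 mM Tris-HCl pH 8.0, 0.01% Tween 20, with AMC peptide substrate. Fluorescence (ex 340, em 450 nm) change over 15 min, room temperature; percent inhibition fitted to 4-parameter Hill equation.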

A short description of assay [3]: Confirmatory screen NINDS Rhodamine qHTS for Zika virus inhibitors (AID 1347161). Also: nearly all actives have a fitted effect of over 60% in size. In outline:
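Each compound, titrated, sat 15 min with 25 nM linked protease before 1.5 microM Rhodamine110 substrate went in. Fluorescence gain over the next 15 min, in pH 8.0 Tris with Tween 20, gave Hill-fitted curves.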

Assay [4] is described as follows: Tertiary RLuc qRT-PCR qHTS assay for Zika virus inhibitors (AID 1347169). Also: nearly all actives have a fitted effect of over 55% in size. The method in brief: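 Orthogonal cell-based readout: luminescence measured 1-1.5 hrs after adding live-cell Renilla substrate to Vero cells that had been infected with ZIKV-RLuc (MOI 1-2) post-compound, incubated 48-72 hrs at 37 degrees C.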
Assay [5] can be described thus: Counterscreen qHTS for small molecule stabilizers of the endoplasmic reticulum resident proteome: GLuc-NoTag assay (AID 1508627). The text has this:
Assay Provider: Brandon K. Harvey Ph.D.
National Institute on Drug Abuse, National Institutes of Health, Baltimore, MD
Endoplasmic reticulum (ER) dysregulation is associated with human pathologies including neurodegenerative, cardiovascular, muscular, and diabetic conditions. Maintenance of ER calcium is critical for functions of the ER and its depletion can lead to loss of ER resident proteins, in a process termed exodosis. Therapeutic compounds capable of attenuating the redistribution of ER proteins under pathological conditions may slow or stop disease progression. To identify such compounds, we performed a quantitative high-throughput screen (qHTS) using the SERCaMP assay, which monitors secretion of ER resident proteins triggered by calcium depletion. […]
8; Detection; Luminescence; ViewLux imaging system […]
7; Gaussia luciferase in the medium was measured by adding 1 ul of 0.5x coelenterazine (final concentration 0.07x) prepared in Gaussia Luciferase Glow Assay Buffer (Pierce), without addition of the Cell Lysis Buffer Reagent.
8; Luminescence was measured using a ViewLux CCD imaging system (Perkin Elmer) equipped with clear filters. […]

For assay [6], the target named is Rap guanine nucleotide exchange factor 3 (Homo sapiens) (UniProt O95398). Description: Confirmatory qHTS for agonist of cAMP-regulated guanine nucleotide exchange factor 3 (EPAC1) (AID 1645881). Also: nearly all actives have a fitted effect of over 75% in size.
Assay [7] addresses Rap guanine nucleotide exchange factor 4 (Homo sapiens) (UniProt Q8WZA2). Description: Confirmatory qHTS for agonist of cAMP-regulated guanine nucleotide exchange factor 4 (EPAC2) (AID 1645884).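 Also: nucleotide exchange releases bodipy-GDP from Rap1 and this lowers its fluorescence; nearly all actives have a fitted effect of over 65% in size.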

Records with an inconclusive call do not appear. Calls follow the shape of the dose curve; as a rule, active = well fitted curve in the direction sought with a large enough effect; inconclusive = small, poorly fitted or top-dose-only effect, or another doubt; inactive = no such curve, though single readings can be large; an effect the other way counts as inactive or inconclusive. The source holds several records for some structures; these can differ, active in one and inactive in another. The source holds more than one record for some entries. They are shown here; other results are not. There may be further records. The records of an entry are repeats (runs, samples, wells, individuals or studies). Brackets tell where a record comes from. The letters are not those of the source and start again with each entry.
Potency is read from the fitted curve at half-maximal effect.

UniProt O95398, sequence (O95398 whole entry, looked up): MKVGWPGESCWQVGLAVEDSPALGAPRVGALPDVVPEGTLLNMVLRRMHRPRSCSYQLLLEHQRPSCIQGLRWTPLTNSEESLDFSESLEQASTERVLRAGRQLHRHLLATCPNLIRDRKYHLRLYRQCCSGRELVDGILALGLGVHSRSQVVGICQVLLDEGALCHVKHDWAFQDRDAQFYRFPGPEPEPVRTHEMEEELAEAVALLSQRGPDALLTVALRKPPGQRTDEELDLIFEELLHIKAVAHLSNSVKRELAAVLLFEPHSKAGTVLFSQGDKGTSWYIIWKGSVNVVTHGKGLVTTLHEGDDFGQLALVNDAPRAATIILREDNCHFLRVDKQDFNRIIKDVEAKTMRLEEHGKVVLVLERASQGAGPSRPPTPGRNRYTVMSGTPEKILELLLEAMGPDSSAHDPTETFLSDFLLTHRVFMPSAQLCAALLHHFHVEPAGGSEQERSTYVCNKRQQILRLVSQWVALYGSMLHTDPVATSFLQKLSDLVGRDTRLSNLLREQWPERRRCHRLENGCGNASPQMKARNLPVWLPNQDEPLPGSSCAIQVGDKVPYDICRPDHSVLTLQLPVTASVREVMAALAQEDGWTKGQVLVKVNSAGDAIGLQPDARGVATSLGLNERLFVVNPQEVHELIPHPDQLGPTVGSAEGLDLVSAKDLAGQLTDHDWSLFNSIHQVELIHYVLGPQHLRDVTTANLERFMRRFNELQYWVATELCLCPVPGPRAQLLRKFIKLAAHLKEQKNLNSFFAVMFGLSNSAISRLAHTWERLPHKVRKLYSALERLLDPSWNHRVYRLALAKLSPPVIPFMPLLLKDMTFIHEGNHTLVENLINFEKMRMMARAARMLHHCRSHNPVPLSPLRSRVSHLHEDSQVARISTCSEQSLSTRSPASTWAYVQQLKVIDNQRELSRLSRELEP
UniProt Q8WZA2, sequence (Q8WZA2 whole entry, looked up): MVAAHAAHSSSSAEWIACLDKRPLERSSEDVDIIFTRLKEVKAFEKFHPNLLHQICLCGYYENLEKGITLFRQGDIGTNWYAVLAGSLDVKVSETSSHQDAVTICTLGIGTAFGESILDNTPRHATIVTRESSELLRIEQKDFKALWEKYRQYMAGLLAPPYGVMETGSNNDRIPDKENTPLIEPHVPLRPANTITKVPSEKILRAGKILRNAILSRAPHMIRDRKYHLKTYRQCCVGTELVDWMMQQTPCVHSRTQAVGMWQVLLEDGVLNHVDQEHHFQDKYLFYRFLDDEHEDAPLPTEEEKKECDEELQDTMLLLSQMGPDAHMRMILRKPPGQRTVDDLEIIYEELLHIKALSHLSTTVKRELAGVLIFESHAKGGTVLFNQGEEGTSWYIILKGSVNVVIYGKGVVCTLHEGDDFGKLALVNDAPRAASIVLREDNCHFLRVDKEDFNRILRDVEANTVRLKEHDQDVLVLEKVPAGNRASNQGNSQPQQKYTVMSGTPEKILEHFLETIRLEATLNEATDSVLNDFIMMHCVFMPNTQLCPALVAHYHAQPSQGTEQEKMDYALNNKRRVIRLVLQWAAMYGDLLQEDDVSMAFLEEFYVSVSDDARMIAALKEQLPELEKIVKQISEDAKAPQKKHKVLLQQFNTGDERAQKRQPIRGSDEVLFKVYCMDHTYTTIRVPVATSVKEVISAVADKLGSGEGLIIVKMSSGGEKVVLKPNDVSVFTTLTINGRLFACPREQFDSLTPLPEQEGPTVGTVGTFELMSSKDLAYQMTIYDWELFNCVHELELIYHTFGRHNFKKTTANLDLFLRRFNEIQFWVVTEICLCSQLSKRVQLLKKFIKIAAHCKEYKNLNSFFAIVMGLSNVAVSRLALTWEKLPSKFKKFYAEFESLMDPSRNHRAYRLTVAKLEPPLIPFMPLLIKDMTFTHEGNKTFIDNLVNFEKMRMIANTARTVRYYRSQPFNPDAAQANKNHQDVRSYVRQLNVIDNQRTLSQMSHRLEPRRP

`COc1ccnc(CS(=O)c2nc3ccc(OC(F)F)cc3[nH]2)c1OC` (configuration not stated): the Potency entry in assay [1] is “inactive [sample A] and active: 23.5 µM [sample B]”.
For `O=C(O)Cc1cccc(OCCCN(Cc2cccc(C(F)(F)F)c2Cl)CC(c2ccccc2)c2ccccc2)c1`, the Potency result in assay [2] was “inactive [sample A] and active: 7.64 µM [sample B]”.
Regarding `N#CC1(c2cccc(C(=O)Nc3cc(Oc4ccc5nc(NC(=O)C6CC6)sc5n4)ccc3F)c2Cl)CC1`, the Potency result in assay [3] is “inactive [sample A] and active: 15.6 µM [sample B]”; in assay [4], “inactive [sample A] and active: 658 nM [sample B]”.
Turning to `CN(C(Cc1ccc(OS(=O)(=O)c2cccc3cnccc23)cc1)C(=O)N1CCN(c2ccccc2)CC1)S(=O)(=O)c1cccc2cnccc12` (configuration not stated), the Potency result in assay [5] was “inactive [sample A] and active: 7.94 µM [sample B]”.
With `Cc1cc2nc3c(=O)[nH]c(=O)nc-3n(CC(O)C(O)C(O)CO)c2cc1C` (configuration not stated), the Potency result is “inactive [sample A] and active: 79.3 µM [sample B]” in assay [6]; “inactive [sample A] and active: 88.9 µM [sample B]” in assay [7].
